Test results published in ChEMBL document CHEMBL4888484, “Replenishing the malaria drug discovery pipeline: Screening and hit evaluation of the MMV Hit Generation Library 1 (HGL1) against asexual blood stage Plasmodium falciparum ,using a nano luciferase reporter read-out” (2022).
Out of some 150,000 compounds screened, about 540 (0.36%) showed an effect of 50% or more. Some of the results follow.

test system: Plasmodium falciparum; test: Primary screen in NF54 nanoGlo assay, in single point, at 2uM, 72h; a lower Z score goes with more inhibition; assay type: functional, Erythrocyte; settings: timepoint 72 hour

SMILES	% Inhibition [%]	Z score
CCc1ncc(C(=O)Nc2c(C)c(CC)nn2-c2ccccc2)cn1	-14	1.97
Cc1ccccc1N1C(=O)C2C3C=CC(C3=C3CCCCC3)C2C1=O (centres undefined)	9	-1.3
COc1ccccc1Cn1ccc2c(cnc3c(-c4ccc(Cl)cc4)cnn32)c1=O	-17	2.48
O=C(c1cccc(-c2ccc3[nH]c(CO)nc3c2)c1)N1CC[C@@](O)(CO)C1	-17	2.35
FC(F)(F)c1cccnc1N1CCC[C@H](C2CC2)C1	-12	1.5
Cc1ccc(-c2ccc(C#N)s2)cc1NCc1nc(C2CC2)no1	25	-2.96
COc1ccc(Cn2c(=O)c3c(ncn3Cc3ccc(Cl)c(Cl)c3)n(-c3ccc(F)cc3)c2=O)cc1	1	-0.26
Cc1nc2c(c(N3CCC(c4nc(-c5ccccc5)no4)CC3)n1)CNC2	-3	0.5
CN(C[C@H](O)c1ccc(F)cc1)C(=O)c1cccc2[nH]ccc12	-4	0.43
Cc1nc2ccccc2n1[C@H]1CCN(S(=O)(=O)c2ccc(F)c(-c3nnn[nH]3)c2)C1	-4	0.5
CCOc1ccc(NC(=O)c2nn3c(C)cc(C)nc3c2-c2ccc(C)c(S(=O)(=O)N3CCOCC3)c2)cc1	-6	0.56
O=C(NC1CCOC2(CCS(=O)(=O)C2)C1)NC1CCCc2occc21 (centres undefined)	-6	0.78
O=C(CN1C[C@H]2CC[C@@H](C1)[C@H]2O)Nc1ccc(F)cc1	-6	0.81
C[C@H](NC(=O)c1ccccc1N1CCCC1)c1ccc2c(c1)OCCO2	-10	1.99
Cc1nc(C)n(C[C@H]2CCCCN2Cc2ccc3c(c2)OCCO3)n1	-15	1.54
CN(C)CCn1ccnc1C1CCN(C(=O)NCc2cccc(F)c2)CC1	5	-0.83
C[C@]1(C(=O)NCc2nsc3ccccc23)CCC(=O)NC1	-17	2.03
Cc1nn(CCC(=O)n2nnc3ccccc32)c(C)c1Cl	-30	3.52
O=C(NCCc1nnc2ccccn12)NCC1CCCCC1	-10	1.88
O=c1c2c(ncn1Cc1ccccc1)c1ccccc1n2Cc1c(F)cccc1Cl	-7	1.11
C=C(C)CN(CC)C(=O)Nc1cnn([C@@H](C)CC)c1C	-5	1.05

SMILES	% Inhibition [%]	Z score
N#Cc1c(-c2ccccc2)cc(-c2ccccc2)nc1N1CCCCC1	-6	0.85
Cc1ccc(F)c(S(=O)(=O)N2CCC(=O)Nc3cnccc32)c1	-6	0.91
CCN1C(=O)[C@H]2[C@@H](C1=O)[C@@](CO)(C(=O)OC)N[C@H]2c1cccc2c1OC(C)(C)C2	0	-0.05
C[C@@]1(C(F)(F)F)CN(C(=O)c2cnn3ccc(N)cc23)CCO1	-4	0.54
c1cc(-c2ccn(Cc3ccncc3)n2)cc(-c2ncnc3sccc23)c1	-19	1.78
Cc1noc(C)c1S(=O)(=O)NC[C@@](O)(c1cccs1)C1CC1	-4	0.62
OC1=Nc2cccc3c2c(cn3Cc2ccccc2)[C@@H](c2ccc(O)cc2)C1	-21	3.22
Cc1csc(CN(C)Cc2cc3c([nH]c2=O)CCCC3)n1	-11	1.73
NC(=O)[C@H]1CCCN(C(=O)Cc2ccc3c(c2)OCO3)C1	2	-0.21
COCC(=O)NCC#CCOc1ccccc1C(N)=O	-14	1.83
COc1ccccc1-c1cc(CN(Cc2ccc3c(c2)OCO3)C(=O)c2ccco2)no1	-10	2.07
CC(C)[C@H](CNCc1ccsc1)c1ccnn1C	-13	1.69
CCOC(=O)c1cn([C@H]2COC[C@@H]2OCC)cc(Oc2ccccc2)c1=O	0	0.06
O=C(CCCNc1ncccn1)NCCn1ccc2cc(Br)ccc21	-11	1.53
Cc1noc(C)c1CCC(=O)Nc1ccc(OC[C@H]2CCCCO2)cc1	-12	2.02
COCCn1ccc2c(OCC(=O)Nc3ccc(N4CCN(CCO)CC4)cc3)cccc21	8	-1
CC1=NO[C@H](C(=O)N2CCC3(CCC(=O)N(CCc4ccncc4)C3)CC2)C1	6	-1.28
COc1cccc([C@H](C)N(C)Cc2cccc(-c3nc(C)c(F)c(=O)[nH]3)c2)c1	-9	1.33
CN(C(=O)C1CCCC(C(F)(F)F)C1)c1ccc(S(C)(=O)=O)cc1 (centres undefined)	-3	0.28
C=CCN1CCN(Cc2cc(=O)[nH]c(-c3ccccc3)n2)CC1	-11	1.9
CCCc1nc(CN2C(=O)C3CC=CCC3C2=O)no1 (centres undefined)	-7	0.97

SMILES	% Inhibition [%]	Z score
Clc1cccc(OCCOc2ccc3ncccc3c2)c1	-2	0.27
Cc1noc(C2CCN(C(=O)c3csc4c3CCCC4)CC2)n1	-3	0.44
CC(=O)N1CC(C)Oc2ccc(S(=O)(=O)NC(CC(=O)O)c3ccc(C)cc3C)cc21 (centres undefined)	-9	1.33
COc1cc(CC(=O)N2CCN(c3cc(C(C)C)n4cnnc4n3)CC2)cc(OC)c1	-6	0.76
COc1ccccc1NC(=O)[C@H](Cc1ccccc1)NS(=O)(=O)c1ccc2c(c1)c(=O)n(C)c(=O)n2C	-1	0.08
c1ccc2sc(NC[C@H]3CN(c4nncs4)CCO3)nc2c1	-63	7.35
Cc1cnc(C(=O)Nc2ccc3c(C)n[nH]c3c2)cn1	0	-0.05
O=C(NC1CC1)c1ccccc1NC(=O)C1CCN(S(=O)(=O)c2ccc(Cl)cc2)CC1	-4	0.67
O[C@]1(c2ccc(Cl)cc2Cl)CN2C=CC=CC2=[N+]1Cc1ccccc1	7	-1.16
Cc1cnc(CCNC(=O)c2ccncc2)n1C1CC1	-10	1.86
Cn1cc(CNC(=O)C2CC2c2cccc(Cl)c2Cl)cn1 (centres undefined)	2	-0.34
CCc1nc(C)c(CC(=O)N2CCC(c3n[nH]c(=O)n3CC)CC2)c(=O)[nH]1	17	-2.11
Cc1nn(-c2ncccn2)c2c1[C@@H](c1ccc(F)cc1F)CC(=O)N2	-1	0.13
CNS(=O)(=O)c1cc(Br)c(C)cc1C	4	-0.72
COCCNC(=O)c1cn(C2CCN(C(=O)c3c(-c4ccccc4)noc3C)CC2)nn1	-1	0.15
O=C(Cn1cc(C(=O)c2ccncc2)c(=O)c2ccc(F)cc21)Nc1ccccc1Cl	-3	0.35
C[C@@H](Cn1cccn1)NCc1csc(CC(=O)N(C)C)n1	-1	0.16
CC(C)(C)CN1CC[C@H](C2CCN(C(=O)c3csnn3)CC2)C1	-8	1.11
O=c1c2cnn(-c3ccccc3)c2nnn1Cc1cccc2cccnc12	-16	1.79
O=C(c1ccsc1)N1CC(N2C(=O)CCC2=O)C1	-3	0.39
Cc1cc(C(=O)Nc2nnc(Cc3cccc(F)c3)s2)c2c(C)n[nH]c2n1	-2	0.24

SMILES	% Inhibition [%]	Z score
COc1ccc(CN2C(C(=O)O)CC[C@H]2c2ccccc2)cc1 (some centres undefined)	-2	0.35
CC(C)c1nnc(CN2CCC([C@]3(C)NC(=O)NC3=O)CC2)s1	-5	0.69
Fc1cc(CNCc2ccc(N3CCCCC3)nc2)cc(F)c1F	1	-0.15
CCCc1nccn1-c1cncc(N)c1	-11	1.73
COc1ccccc1-c1nnc2c3ccc(Cl)cc3nc(N3CCN(C(=O)c4c(F)cccc4F)CC3)n12	-2	0.31
Cc1cccc(N2CCN(C(=O)C[C@@H]3NC(=O)NC3=O)CC2)c1C	-9	1.46
Fc1cccc2oc(N3CCCO3)nc12	-2	0.46
Cc1nc(CCCNC(=O)c2n[nH]c3c2CCC3)sc1C	-2	0.28
O=C(NCc1ccc(F)cc1F)c1[nH]nnc1-c1ccc(F)cc1	-14	2.69
O=C(c1csc(-c2ccco2)n1)N(Cc1ccccn1)c1ccc(F)cc1	-8	1.09
CO[C@H]1CCOC[C@@H]1NC(=O)c1coc(-c2ccccc2Cl)n1	-11	2.01
CS(=O)(=O)N1CCC(C(=O)OC2CN(c3nc4ccccc4s3)C2)CC1	-1	0.16
Cc1cc2c3c([nH]c2cc1S(=O)(=O)N1CCN(c2ccccc2)CC1)CC(C)(C)CC3=O	-14	2.74
CCn1cc(-c2c(-c3ccccc3)ncn2Cc2ccc3nonc3c2)c(C)n1	-9	1.82
CCCCc1cc(C[C@H]2CNCC[C@H]2CC(=O)N(CC)CC)no1	10	-1.29
Cc1nccn1CCN(C)[C@@H](C(=O)O)c1ccc(C(C)(C)C)cc1	-14	1.99
Cn1cc(-c2csc(-c3ccoc3)n2)cn1	-14	2.59
CC(C)(C)[C@H]1CCCN(CCCS(C)(=O)=O)CC1	-11	2.14
O=C(c1nc2cccnc2s1)N1CCN(c2cccs2)C(=O)C1	-15	2.34
